Data published in the supplement of paper PMC10126150.
Values marked as one replicate rest on one cluster of the flow cell; about a third of the high ones do not repeat.

Test system: ATP
Experiment: switch fluorescence ratio, 500 uM ATP over buffer (Cy3 cluster intensity, sum of 5 cycles each) (fold (ratio)); higher = stronger signal-on switching upon ATP binding; sequences stand for … in TCGTCGGCAGCGTCAGATGTGTATAAGAGACAGTTTTTTTTTTTTTTTTTTTTTTTTT…TC
Conditions: aptamer strand: ATP DNA aptamer (quencher-CACCTGGGGGAGTATTGCGGAGGAAGG + anchor), 100 nM annealed; ATP concentration: 500 uM; one replicate
Method in brief: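 The quencher-labelled ATP aptamer, at 100 nM, was annealed to Cy3-labelled switching-strand clusters on a modified Illumina MiSeq flow-cell. The clusters were imaged in selection buffer, then after 15 min with 500 uM ATP at 22 °C, and this buffer/ATP cycle ran five times with NaOH stripping and re-annealing between runs. Per-cluster fluorescence ratios, summed target-cycle over summed buffer-cycle Cy3 intensity, were averaged per switch-domain sequence. Clusters outside 100-1000 RFU were excluded.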
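Note: ATP exposure 15 min at 22 °C before imaging.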

Sequence	switch fluorescence ratio
TCTTGGTCAT	1.03
AAGTCCGAGA	1.03
GCTTTGGGTT	0.988
ATTTGTGACT	0.995
GTATTCGGCC	0.989
GTGAACGTAG	1.04
GGTCATCCG	1.05
CGGCGACGGG	1
ACTTGCTGCG	1.05
GGTGCTGTGA	1.01
GCCCCACCCA	1.04
CACAAGTGG	0.98
TGTGGACATC	1.07
AGGCCCAAGG	1.09
GAGAAAGGGC	0.976
ACTCGGCAAG	6.42
GACCACTAAC	1.19
TCGATGAGAT	0.991
GTTTTAGTCG	0.98
ATTGCGACGC	1.25
CCCAATGGCT	1.13
GCAAGTCATA	0.989
TAGGCCTGTG	0.963
GTGTAATCAC	0.939
GTGCTACGTT	1.03

Sequence	switch fluorescence ratio
CTAGGCCGTC	0.997
GGCGCTTTAC	3.96
CTGTTGCGCT	1.04
TAGGAATCGC	0.988
TTAAAGAAGA	1.06
CTGTGAACCA	1.02
GGGTGCAAT	1.29
AGTCTATTAA	0.983
GTTGTTGTAA	0.965
TTTCCCAGAG	1.05
GGTAGCATTG	1.01
CATTGCCTTC	1.07
ACACTCTGTC	0.988
TGCACATCCA	1.04
ACTGGTGATG	1
CTAAGGCTG	0.985
ACGCTACTAA	1.44
GATGAACGGT	0.997
TGATTATATT	1.01
ACTCCTCACT	1.5
TCGGGACGCT	1.03
AAGCAGCGT	1.01
TTTCACAAGT	1.01
CATGTCCCCG	1.07
GTGCTTATAT	1.03

Sequence	switch fluorescence ratio
CGTATAAGTG	0.965
CCGGGGCGAA	1.56
TTTGGAACCC	1.04
TTCACAGTGT	1.04
GCTGTGAAT	0.974
CACGATCCGG	0.985
GCTATATAGG	0.966
CAGTGAGTGT	0.965
AACGAAGCGT	1.03
GTAGTGGGGA	1.01
ATCAAAGGGT	1.02
AAGAGGCAGT	1.02
AATAACATAA	1.01
ATTGTATATG	1.01
GTACTTAGGG	1.02
TAGACGCAGA	1.1
GAGAGGAACA	1.02
GTCAGTTTTC	0.993
GCCTGATACT	1.04
GACTATGGCT	0.998
CGACTCTTTT	0.988
ACGGGCTTAC	1.9
ACTTCTGTCG	0.977
CATTGGGCCA	1
CGGTGTCCAT	0.94

Sequence	switch fluorescence ratio
TTACGAATGG	1.01
AGGGTCCCTA	1.3
GCTAACGGTG	1.05
AGTCAGCAGG	1.06
CGTTTTCTGG	1.02
TTGTTCTCCC	1.14
ATGAGGCGCA	0.983
GTGAGAGGCG	0.957
GCCTCGAGAT	1.17
CCCGTGTGGG	0.994
CCTGGGTGGC	1.12
TAGCAGCAA	3.67
CCTCAAGGGA	1.04
GAAAGGAGCT	0.985
TTGTTTCCGT	0.961
AACTCGGCGC	1.07
AGACGGTTCC	1.41
TCGCTACTAA	1.2
TTCTAGTCCC	1.01
GCTTACTTAT	1.04
TTGATGATGT	1.01
GTTGTCACCT	1.06
CTGATCCACG	1.07
CACGACTTCG	0.985
GGCGTAACA	1.02

Sequence	switch fluorescence ratio
ATTCTCGCCA	1.01
AAACGACCGG	0.954
GACCTTGATC	1.08
CTTGGCCGTC	0.984
ATGTTCGTTG	0.922
TGCATACTTA	1.1
TTTTTCGTAC	1.04
AGTCTGAGCA	0.958
ATGCGCTTCG	0.965
GAATGAGTGG	0.985
TCCTCTCGG	0.975
AGGGCGTGG	1.02
GAAGCGGTCG	1.01
CTCATTGGCT	0.987
TAAGACATGT	1.01
CCATACGCTT	3.53
GTGAATTTAT	0.947
CAATGAGATA	1.01
GAAAGACCG	1.02
AATTGTAGAT	0.971
AAAATAGGCA	1.04
TGCCATCGCT	0.98
TGTAGCCGGG	1.03
TGTTGGCCGT	1
CCGGAAGTAA	5.1

Sequence	switch fluorescence ratio
GATCCAAGCT	1.01
ATGTGTGGCC	1
TTCTTTAAGG	1.02
TTGTTCGACC	1.06
ACGCTTGGCT	1.9
GACACGAAAT	1.15
GAGATATGAT	0.998
ATCTACGCAG	1.33
ACAGAGCACG	1.06
GTCAATTTTC	0.98
TACCGCGCGG	1.03
GACAATGCAA	2.94
CCCGAAAAAC	1.24
AGGGGAAGCG	0.973
TCAAGGTCT	1.04
CATGATCGAG	1.03
AGGTCTGGGG	1.01
GTGACTCTCT	0.946
GAGTCCAGTC	0.986
TGGATATGCT	0.994
CTTGACCACG	0.946
AGGGTTTTTA	0.983
CGCGCGGTTA	1.04
CATTCTTGCG	1.01
ACATCTTATT	1.02

Sequence	switch fluorescence ratio
TCAGTGCGGC	0.972
TAACGTCCA	0.956
ATTGGGAGCT	1.02
CTGGTTGAGA	1
CCGACAGTTG	1.13
CCCCGGTGAA	2.09
CTACAGTCTT	1.02
CTTCCAACAG	1.46
GGCTGCACCC	1.03
ACTTTGAACG	1.07
GAAGAAATTA	1.04
TGTGGAGGTG	1.03
ACACGCTGAG	1.07
GAACACATTC	1.04
GCCGTAAACT	1.03
ATGGTGACGC	1.09
TAACTAGAAA	1.01
TGTTACAGAT	1.05
AATGTGCTTC	0.954
GTGAACTTAT	1.01
TTTCTCGGA	1.05
CTTATCTGAA	0.983
TCTGTCCGC	1.68
CAACCCGGCG	1.04
CACATAATCG	1.05

Sequence	switch fluorescence ratio
TCTATGAGAG	0.99
CGATGTTAGC	1.06
ATTATGCTTG	1.01
TCACCTGTAC	1.36
GATTAGTTTT	1.04
TTCGACTACA	0.993
CCTCGGTTAA	2.92
GTGAAACCTG	1.08
AAGAATTTTA	1.03
GTCTCACCTG	1.04
TTGTTACGAA	1.05
GTTTGGCGGC	1.13
CAAGCGACTG	1.03
GATACACTTA	0.976
TTCAATATGA	1.03
GCATGGAACA	0.984
CCGGTGATTA	1.07
CCCAGATGGC	1.19
GCGGACTCAA	1.09
GATGCCGGTA	0.969
CCACAAGCCC	1.68
AACTGTAAGG	1
CTCATTGAAT	0.971
CCTGAATGGG	1.05
CCTGATACAG	1.03
